Results: the supplement of paper PMC4967469

Compound: Cn1cc(C2=C(c3cn(C4CCN(Cc5ccccn5)CC4)c4ccccc34)C(=O)NC2=O)c2ccccc21 [LY317615]
Experiment: Viability of human cancer cell lines after 72 h of drug (GDSC screen)
Settings: top dose inferred
Description: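 Human cancer cell lines in 384-well plates, medium with 10% serum, drug for 72 h over a 256-fold dose range (nine 2-fold or five 4-fold steps up to the top dose). Adherent lines were fixed and stained with the nucleic acid dye Syto60, suspension lines read with resazurin; signal relative to control wells, capped at 0 and 100%. One two-parameter sigmoid per drug and line, fitted in a mixed model over all curves with the slope shared within a line.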

Row | Cell Line | AUC | IC50
1 | OV-17R (ovary, adherent, top dose 20 µM) | 0.751 | 9.03 µM
2 | OV-56 (ovary, adherent, top dose 20 µM) | 0.862 | 16 µM
3 | OV-90 (ovary, adherent, top dose 20 µM) | 0.764 | 9.28 µM
4 | OVCA420 (ovary, adherent, top dose 20 µM) | 0.897 | > 20 µM
5 | OVCA433 (ovary, adherent, top dose 20 µM) | 0.862 | > 20 µM
6 | OVCAR-3 (ovary, adherent, top dose 20 µM) | 0.987 | > 20 µM
7 | OVCAR-4 (ovary, adherent, top dose 20 µM) | 0.75 | 9.59 µM
8 | OVCAR-5 (ovary, adherent, top dose 20 µM) | 0.649 | 3.53 µM
9 | OVCAR-8 (ovary, adherent, top dose 20 µM) | 0.959 | > 20 µM
10 | OVISE (ovary, adherent, top dose 20 µM) | 0.924 | > 20 µM
11 | OVK-18 (ovary, adherent, top dose 20 µM) | 0.963 | > 20 µM
12 | OVKATE (ovary, adherent, top dose 20 µM) | 0.731 | 9.02 µM
13 | OVMIU (ovary, adherent, top dose 20 µM) | 0.669 | 4.17 µM
14 | OVTOKO (ovary, adherent, top dose 20 µM) | 0.774 | 10.1 µM
15 | P12-ICHIKAWA (T-cell lymphoblastic leukaemia, suspension, top dose 20 µM) | 0.569 | 1.84 µM
16 | P30-OHK (lymphoblastic leukaemia, suspension, top dose 20 µM) | 0.872 | 13.8 µM
17 | P31-FUJ (acute myeloid leukaemia, suspension, top dose 20 µM) | 0.919 | 17.6 µM
18 | P32-ISH (Burkitt lymphoma, suspension, top dose 20 µM) | 0.879 | 12 µM
19 | PA-1 (ovary, adherent, top dose 20 µM) | 0.811 | 7.89 µM
20 | PA-TU-8902 (pancreas, adherent, top dose 20 µM) | 0.961 | > 20 µM
21 | PA-TU-8988T (pancreas, adherent, top dose 20 µM) | 0.963 | > 20 µM

Row | Cell Line | AUC | IC50
22 | PANC-02-03 (pancreas, adherent, top dose 20 µM) | 0.852 | > 20 µM
23 | PANC-03-27 (pancreas, adherent, top dose 20 µM) | 0.729 | 5.31 µM
24 | PANC-04-03 (pancreas, adherent, top dose 20 µM) | 0.564 | 2.07 µM
25 | PANC-08-13 (pancreas, adherent, top dose 20 µM) | 0.617 | 2.88 µM
26 | PANC-10-05 (pancreas, adherent, top dose 20 µM) | 0.698 | 5.32 µM
27 | PC-3 (prostate, adherent, top dose 20 µM) | 0.735 | 6.88 µM
28 | PC-3 [JPC-3] (lung adenocarcinoma, adherent, top dose 20 µM) | 0.828 | 18.3 µM
29 | PC-14 (lung adenocarcinoma, adherent, top dose 20 µM) | 0.491 | 1.19 µM
30 | PCI-4B (head and neck, adherent, top dose 20 µM) | 0.854 | 14.5 µM
31 | PCI-6A (head and neck, adherent, top dose 20 µM) | 0.796 | 9.17 µM
32 | PCI-15A (head and neck, adherent, top dose 20 µM) | 0.819 | 11.5 µM
33 | PCI-30 (head and neck, adherent, top dose 20 µM) | 0.944 | > 20 µM
34 | PCI-38 (head and neck, adherent, top dose 20 µM) | 0.909 | > 20 µM
35 | PE/CA-PJ15 (head and neck, adherent, top dose 20 µM) | 0.929 | > 20 µM
36 | PEO1 (ovary, adherent, top dose 20 µM) | 0.894 | > 20 µM
37 | PF-382 (T-cell lymphoblastic leukaemia, suspension, top dose 20 µM) | 0.542 | 1.6 µM
38 | PFSK-1 (medulloblastoma, adherent, top dose 20 µM) | 0.984 | > 20 µM
39 | PL4 (pancreas, adherent, top dose 20 µM) | 0.984 | > 20 µM
40 | PL18 (pancreas, adherent, top dose 20 µM) | 0.985 | > 20 µM
41 | PL-21 (acute myeloid leukaemia, suspension, top dose 20 µM) | 0.726 | 6.18 µM
42 | PSN1 (pancreas, adherent, top dose 20 µM) | 0.664 | 3.28 µM

Row | Cell Line | AUC | IC50
43 | QGP-1 (pancreas, adherent, top dose 20 µM) | 0.973 | > 20 µM
44 | QIMR-WIL (acute myeloid leukaemia, suspension, top dose 20 µM) | 0.563 | 1.85 µM
45 | RC-K8 (B-cell lymphoma, suspension, top dose 20 µM) | 0.95 | > 20 µM
46 | RCC10RGB (kidney, adherent, top dose 10.24 µM) | 0.972 | > 10.2 µM
47 | RCC-AB (kidney, adherent, top dose 20 µM) | 0.489 | 1.16 µM
48 | RCC-ER (kidney, adherent, top dose 20 µM) | 0.587 | 2.23 µM
49 | RCC-FG2 (kidney, adherent, top dose 20 µM) | 0.758 | 8.77 µM
50 | RCC-JF (kidney, adherent, top dose 20 µM) | 0.798 | 10.9 µM
51 | RCC-JW (kidney, adherent, top dose 20 µM) | 0.743 | 6.34 µM
52 | RCC-MF (kidney, adherent, top dose 20 µM) | 0.755 | 8.65 µM
53 | RCM-1 (large intestine, adherent, top dose 20 µM) | 0.782 | 10.3 µM
54 | RD (rhabdomyosarcoma, adherent, top dose 20 µM) | 0.945 | > 20 µM
55 | REH (B-cell leukaemia, suspension, top dose 20 µM) | 0.67 | 3.65 µM
56 | RERF-GC-1B (stomach, adherent, top dose 20 µM) | 0.979 | > 20 µM
57 | RERF-LC-KJ (lung adenocarcinoma, adherent, top dose 20 µM) | 0.75 | 6.72 µM
58 | RERF-LC-MS (lung adenocarcinoma, adherent, top dose 20 µM) | 0.924 | > 20 µM
59 | RERF-LC-Sq1 (lung squamous cell carcinoma, adherent, top dose 20 µM) | 0.845 | > 20 µM
60 | RF-48 (stomach, adherent, top dose 20 µM) | 0.827 | 14.2 µM
61 | RH-1 (rhabdomyosarcoma, adherent, top dose 20 µM) | 0.953 | > 20 µM
62 | RH-18 (rhabdomyosarcoma, adherent, top dose 20 µM) | 0.985 | > 20 µM
63 | RH-41 (rhabdomyosarcoma, adherent, top dose 20 µM) | 0.955 | > 20 µM

Row | Cell Line | AUC | IC50
64 | RKN (ovary, adherent, top dose 20 µM) | 0.98 | > 20 µM
65 | RKO (large intestine, adherent, top dose 20 µM) | 0.785 | 7.88 µM
66 | RL95-2 (endometrium, adherent, top dose 20 µM) | 0.984 | > 20 µM
67 | RL (B-cell lymphoma, suspension, top dose 20 µM) | 0.546 | 1.65 µM
68 | RMG-I (ovary, adherent, top dose 20 µM) | 0.931 | > 20 µM
69 | RO82-W-1 (thyroid, adherent, top dose 20 µM) | 0.983 | > 20 µM
70 | ROS-50 (B-cell leukaemia, suspension, top dose 20 µM) | 0.938 | > 20 µM
71 | RPMI-2650 (head and neck, adherent, top dose 20 µM) | 0.915 | > 20 µM
72 | RPMI-6666 (Hodgkin lymphoma, suspension, top dose 20 µM) | 0.562 | 1.92 µM
73 | RPMI-7951 (melanoma, adherent, top dose 20 µM) | 0.793 | 8.86 µM
74 | RPMI-8226 (myeloma, suspension, top dose 20 µM) | 0.882 | 16.4 µM
75 | RPMI-8402 (T-cell lymphoblastic leukaemia, suspension, top dose 20 µM) | 0.505 | 1.28 µM
76 | RPMI-8866 (chronic myeloid leukaemia, suspension, top dose 20 µM) | 0.901 | > 20 µM
77 | RS4-11 (leukaemia, suspension, top dose 20 µM) | 0.645 | 3.02 µM
78 | RT4 (bladder, adherent, top dose 20 µM) | 0.864 | 18.9 µM
79 | RT-112 (bladder, adherent, top dose 20 µM) | 0.918 | > 20 µM
80 | RVH-421 (melanoma, adherent, top dose 20 µM) | 0.674 | 4.59 µM
81 | RXF393 (kidney, adherent, top dose 20 µM) | 0.638 | 3.5 µM
82 | Raji (Burkitt lymphoma, suspension, top dose 20 µM) | 0.984 | > 20 µM

The IC50 comes from the fitted curve, where viability falls to half of the control; a fit beyond the top or the lowest dose is shown as a bound at that dose. AUC, from the same fit, is the share of area under the viability curve across the 256-fold dose range; it is 1 without any effect and falls as sensitivity rises. An inferred top dose was calculated from the reported fits.
